Experimental data as given in PubChem BioAssay AID1345082 (National Center for Advancing Translational Sciences (NCATS), 2018).
“And” between values parts separate entries of the source, which are not always exact repeats. Identical values can stand only once. Out of some 94,000 compounds screened, about 4,000 (4.3%) were called active. Inconclusive results, whose numbers are uncertain, are shown with a selection of clear calls. The call rests on the fitted dose curve; in most records, active means well fitted inhibition curve with a large enough effect; inconclusive means small, poorly fitted or top-dose-only effect; inactive means no such curve, though single readings can be large or run the other way. A potency beside an inconclusive call is a rough fit, not a confirmed value.
On the % scale 0 is the no-effect control and ±100 the full control effect; potency means the concentration at half of the fitted maximal effect; tags describe the fitted curve by direction and shape.

Assay: Cytotoxic Profiling in NIH 3T3 Cell Line of Diverse Libraries Using Quantitative High-Throughput Screening; further: nearly all actives have a fitted effect of over 55% in size
Conditions: NIH 3T3 viability, CellTiter-Glo ATP luminescence, 48-72 h; activity change, negative = cytotoxicity: at 96.7 µM (top of the series) unless noted; series mostly up to 96.7 µM
Method in brief: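 First NIH 3T3 cells are plated at 400 cells/well; next compound is pinned in; then plates incubate 48 or 72 hr at 37 °C; finally CellTiter-Glo is added and luminescence read after 10 min.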
In the case of `NC(=O)c1ccccc1OCC(=O)N1CC(CNC(=O)Nc2ccccc2)C2(C1)CN(c1ccccc1)C2` (centres undefined), the Potency is reported as inconclusive: 56.2 µM [inhibitor, partial curve, poor fit]. With `CCCNC(=O)C1C(c2cccc(NC(=O)c3ccc(C)cc3)c2)OC(=O)N1Cc1ccc(C)cc1` (centres undefined) the Potency was inconclusive: 35.5 µM [inhibitor, full curve, poor fit]. In the case of `COc1ccc(CNC(=O)[C@@H]2Cc3cn(CC4CC4)c4cccc(c34)[C@H](CC(C)C)N2)cc1`, the Potency is reported as inconclusive: 89.1 µM [inhibitor, single point]. With `COc1ccc(-c2nc(C)nc3c2CCN([S+](=O)([O-])c2cccs2)CC3)cc1` the Potency was inconclusive: 56.2 µM [inhibitor, partial curve, poor fit]. In the case of `COc1ccc(C(=O)N2CCC3(CC2)CC(c2nc(C)no2)N(C)C3)c(OC)n1` (centres undefined), the “outcome” value is reported as “inactive”. With `O=C(N[C@H]1CCN2C(=O)c3cc(-c4ccc(F)cc4F)ccc3NC(=O)[C@H]12)c1cnccn1` the Potency was inconclusive: 89.1 µM [inhibitor, single point]. In the case of `CN(Cc1ccccc1)Cc1cn([C@H]2CO[C@H]3[C@@H]2OC[C@@H]3NC(=O)CCC(=O)O)nn1`, the Potency is reported as inconclusive: 112 µM [inhibitor, partial curve]. In the case of `O=C(c1ccc(F)cc1)N1CCN(c2nccc(Nc3ccccc3Cl)n2)CC1`, the Potency is reported as inconclusive: 12.6 µM [inhibitor, full curve, poor fit]. With `COc1ccc(-c2ccccc2NC(=O)C2CCCN(Cc3ccccc3O)C2)cc1` (centres undefined) the Potency was inconclusive: 79.4 µM [inhibitor, partial curve, poor fit]. With `Cc1ccsc1C(=O)N1CCOc2ccc(CN3CCc4ccccc4C3)cc2C1` the Potency was inconclusive: 11.2 µM [inhibitor, full curve, poor fit]. With `Cc1nn(-c2ccccc2)c2c1C(C(C)C)N(C1CCN(C(=O)c3cccc(Cl)c3)CC1)C2=O` (centres undefined) the Potency was inconclusive: 35.5 µM [inhibitor, partial curve, poor fit]. With `Cc1ccc(C)c(C(=O)NCc2nnc3cc(-c4nc(C5CC5)no4)ccn23)c1` the Potency was inconclusive: 39.8 µM [inhibitor, partial curve, poor fit]. For `Cc1ccc(CNC(=O)N2CCCC(Cc3nncn3-c3ccccc3)C2)cc1` (centres undefined), the Potency was inconclusive: 70.8 µM [inhibitor, single point]. With `CC(=O)NC[C@@H]1C=C(C)[C@H](CC(=O)N(C)Cc2ccccc2)C[C@H]1C(C)C` the “activity change, negative = cytotoxicity” value was inactive: -24.7% [at 138 µM]. For `COCC1CN(C(=O)NCc2ccc(F)cc2)CC12CCNCC2` (centres undefined), the “activity change, negative = cytotoxicity” value was inactive: -24.8%. In the case of `CCOc1nccn2c(-c3ccc(CNC(=O)Cn4cnnn4)cc3)cnc12`, the Potency is reported as inconclusive: 63.1 µM [inhibitor, partial curve, poor fit]. For `O=C(Nc1ccccc1)Nc1ccc(=O)n2c1[C@@H]1C[C@@H](CN(C(=O)Nc3ccc(F)cc3)C1)C2`, the “activity change, negative = cytotoxicity” value was inactive: -28.6%. For `CCN1C(=O)C2CC3(CCN(Cc4cccc(OC)c4)CC3)CN2C1=O` (centres undefined), the “activity change, negative = cytotoxicity” value was inactive: -11.6%. For `COc1ccc(C(=O)N2CC(c3nc(CCOc4cccc(C)c4)no3)C2)cc1F`, the Potency was inconclusive: 50.1 µM [inhibitor, partial curve, poor fit]. For `CC(C)(C)OC(=O)N1CCC(NC(=O)c2nc(-c3ccccc3)c3ccccn23)CC1`, the Potency was inconclusive: 50.1 µM [inhibitor, partial curve, poor fit]. With `CN1C(=O)N(CCc2ccccc2)C(=O)C12CCN(Cc1cn[nH]c1-c1ccc(F)cc1)CC2` the “activity change, negative = cytotoxicity” value was inactive: -25.7%. With `Cc1c(F)cccc1NC(=O)N1CCCC(Cn2c(C)nc3cccnc32)C1` (centres undefined) the Potency was inconclusive: 70.8 µM [inhibitor, single point]. With `COc1cc(OC)cc(C(=O)N2CCN(c3cc(C(F)(F)F)nc(C)n3)CC2)c1` the “activity change, negative = cytotoxicity” value was inactive: -12.1%. For `O=C(NCC1CCN(c2cc(-c3ccc(F)cc3)[nH]n2)CC1)c1ccc2nc[nH]c2c1`, the Potency was inconclusive: 44.7 µM [inhibitor, partial curve, poor fit]. With `O[C@H]1[C@H](NCc2ccccc2)[C@H]2CO[C@H](O2)[C@@H]1Sc1ccccc1` the “activity change, negative = cytotoxicity” value was inactive: -12.2% [at 138 µM]. In the case of `O=C(NCc1ccc(F)cc1)C1CCc2nnc(CN[S+](=O)([O-])c3ccccc3Cl)n21` (centres undefined), the “outcome” value is reported as “inactive”. In the case of `COc1cccc(C(=O)N2C[C@H](C(N)=O)[C@H]3c4ccccc4N(CC4CC4)C(=O)[C@]32C)c1`, the Potency is reported as inconclusive: 28.2 µM [inhibitor, partial curve, poor fit]. With `CCCc1nc(C(=O)N2CCC3(CCc4ccccc43)CC2)cs1` the Potency was inconclusive: 50.1 µM [inhibitor, partial curve, poor fit]. For `CC(=O)N1CCC([C@@H]2CN(C(=O)c3nccc4ccccc34)C[C@H]2CO)CC1`, the Potency was inconclusive: 70.8 µM [inhibitor, single point]. With `Cc1ccc(Nc2ccnc(N3CCC(NC(=O)c4ccccc4F)CC3)n2)cc1` the Potency was inconclusive: 39.8 µM [inhibitor, partial curve, poor fit]. For `O=C1NC2(CCN(C(=O)c3ccccc3F)C2)Oc2ccccc21` (centres undefined), the “activity change, negative = cytotoxicity” value was inactive: -20.5% [at 138 µM]. In the case of `Cc1ccc(C(=O)N2CCN(c3cc(C(F)(F)F)ncn3)CC2)s1`, the Potency is reported as inconclusive: 35.5 µM [inhibitor, partial curve]. For `COC(=O)N1CCN(c2nccc(Nc3ccccc3Cl)n2)CC1`, the Potency was inconclusive: 50.1 µM [inhibitor, partial curve, poor fit]. In the case of `C[C@]12CCC(=O)C=C1CCC[C@@H]2OCc1ccccc1`, the Potency is reported as inconclusive: 50.1 µM [inhibitor, partial curve, poor fit]. In the case of `Cc1ccc2nc(C3CCN(Cc4ccc(-c5cccs5)cc4)CC3)[nH]c(=O)c2c1`, the Potency is reported as inconclusive: 25.1 µM [inhibitor, partial curve, poor fit] and inconclusive: 31.6 µM [inhibitor, partial curve, poor fit]. For `O=C(c1ccc[nH]1)N1CCC(n2cc(-c3nc(-c4ccccc4)no3)nn2)CC1`, the Potency was inconclusive: 11.2 µM [inhibitor, full curve, poor fit]. For `CC1=NS(=O)(=O)N(Cc2ccccc2)C=C1C(=O)OCc1nc(-c2ccccc2C)no1`, the Potency was inconclusive: 12.6 µM [inhibitor, full curve]. In the case of `Cc1cccc(CN2CCCC3(CCN(c4cc(C)nc(N)n4)C3)C2=O)c1` (centres undefined), the Potency is reported as inconclusive: 56.2 µM [inhibitor, partial curve, poor fit]. With `COc1cccc(CCC(=O)N2CCC(n3cc(-c4nc(-c5ccccc5)no4)nn3)C2)c1` (centres undefined) the Potency was inconclusive: 25.1 µM [inhibitor, partial curve, poor fit]. For `c1c(CC2CCCCC2)nnn1[C@H]1CO[C@H]2[C@@H]1OC[C@@H]2NCC1CCCCC1`, the Potency was inconclusive: 89.1 µM [inhibitor, partial curve, poor fit]. For `Cn1ccc(NC(=O)C2(C)CCc3cnc(Nc4ccccc4)nc32)n1` (centres undefined), the Potency was inconclusive: 63.1 µM [inhibitor, partial curve, poor fit]. In the case of `Fc1ccc(Cc2nc3nccc(-c4ccccc4)n3n2)cc1`, the Potency is reported as inconclusive: 70.8 µM [inhibitor, single point]. For `COC(=O)c1cc(OCC2CCC2)cc(C(=O)N2[C@H]3CCNC[C@@H]2CC3)c1`, the Potency was inconclusive: 44.7 µM [inhibitor, partial curve, poor fit]. With `O=C(c1cccc(Br)c1)N1CCN(c2cc(-c3ccc(Cl)cc3)[nH]n2)CC1` the Potency was active: 31.6 µM. With `C#CCNC(=O)C1CCCN1Cc1ccc(-c2cncnc2)cc1` (centres undefined) the “activity change, negative = cytotoxicity” value was inactive: -12.7% [at 138 µM]. In the case of `Cc1nnc2ccc(N3CCCN(C(=O)c4cccc(C(F)(F)F)c4)CC3)nn12`, the Potency is reported as inconclusive: 44.7 µM [inhibitor, partial curve, poor fit]. For `COCCn1cnc2ccc(OCc3ccc(C(F)(F)F)cc3)nc2c1=O`, the Potency was inconclusive: 89.1 µM [inhibitor, partial curve, poor fit]. With `CCN(CC)Cc1cc(C(=O)N[C@H](c2cccs2)C2CC(O)C2)c(C)o1` (some centres undefined) the “activity change, negative = cytotoxicity” value was inactive: -15.3%. With `O=C(c1cc(F)ccc1F)N1CC(Oc2ccccc2-c2nc(C3CC3)no2)C1` the Potency was inconclusive: 50.1 µM [inhibitor, partial curve, poor fit]. In the case of `COc1cc(CN2CCC3(CC2)C(=O)NCN3Cc2ccc(Cl)cc2)ccc1F`, the Potency is reported as inconclusive: 70.8 µM [inhibitor, single point]. For `CC(=O)N1CCN(C(=O)c2cc(-c3ccc(F)cc3)c3nncn3n2)CC1`, the “activity change, negative = cytotoxicity” value was inactive: -26.7%. For `NCc1cccc(-c2cccnc2)c1`, the “activity change, negative = cytotoxicity” value was inactive: -13.2% [at 174 µM]. In the case of `CCN1c2cc(C(=O)Nc3ccc(OC)c(Cl)c3)ccc2C(=O)N2CCCCCC21` (centres undefined), the Potency is reported as inconclusive: 20 µM [inhibitor, full curve, poor fit]. For `O=C1NC2(CN([S+](=O)([O-])c3ccsc3)C2)Oc2ccccc21`, the Potency was inconclusive: 56.2 µM [inhibitor, partial curve, poor fit]. In the case of `O=C(Nc1cnc(-c2ccc(C(F)(F)F)cc2)nc1)C1CCOC1` (centres undefined), the Potency is reported as inconclusive: 50.1 µM [inhibitor, single point]. With `CC(C)CCN1CCc2nc(C(=O)Nc3ccc(Cl)cc3)oc2CC1` the Potency was inconclusive: 100 µM [inhibitor, partial curve]. With `COc1ccc(CNC(=O)C[C@@H]2CCNC[C@@H]2Cc2cc(-c3ccc(C(C)(C)C)cc3)on2)cc1` the Potency was active: 25.1 µM. In the case of `COc1ccc(OC)c(S(=O)(=O)N2CCCCCCNC(=O)CC2c2ccccc2)c1` (centres undefined), the Potency is reported as inconclusive: 56.2 µM [inhibitor, partial curve, poor fit]. For `Cc1ccccc1CC(=O)NC1CCN(c2cc(-c3ccccc3)[nH]n2)CC1`, the Potency was inconclusive: 39.8 µM [inhibitor, partial curve, poor fit].
